# Test results from patent US20060148705A1 (Regeneron, published 2006).
# T1: human VEGF165 (human, UniProt P15692-4 27-191)
# T1 construct: also called hVEGF165
# T1 sequence (looked up): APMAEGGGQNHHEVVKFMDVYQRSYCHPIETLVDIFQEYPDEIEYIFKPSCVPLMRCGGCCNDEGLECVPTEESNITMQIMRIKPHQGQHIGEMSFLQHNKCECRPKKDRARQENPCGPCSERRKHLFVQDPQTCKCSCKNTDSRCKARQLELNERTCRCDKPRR
# Experiments:
# human VEGF165 [1] = target: T1, human VEGF165; experiment: BIAcore (SPR), as described in WO/0075319
# human VEGF165 [2] = target: T1, human VEGF165; experiment: affinity determination for human VEGF-165 binding to trap dimer
# human VEGF165 [3] = target: T1, human VEGF165; experiment: half-life of dissociation from hVEGF165, as described in WO/0075319
binder,measurement,setting,value
"VEGFR1R2.FcΔC1(a) parent VEGF trap (dimer of SEQ ID NO:10) (Fc fusion, also called full length VEGF trap; full-sized parent trap) SDTGRPFVEMYSEIPEIIHMTEGRELVIPCRVTSPNITVTLKKFPLDTLIPDGKRIIWDSRKGFIISNATYKEIGLLTCEATVNGHLYKTNYLTHRQTNTIIDVVLSPSHGIELSVGEKLVLNCTARTELNVGIDFNWEYPSSKHQHKKLVNRDLKTQSGSEMKKFLSTLTIDGVTRSDQGLYTCAASSGLMTKKNSTFVRVHEK[here human IgG1 Fc without letters]",T1/2,human VEGF165 [1],4.53 h
same,Kd,human VEGF165 [2],0.655 pM
same,koff,human VEGF165 [2],1.79e-05 s⁻¹
same,kon,human VEGF165 [2],2.73e+07 M⁻¹ s⁻¹
same,T1/2,human VEGF165 [3],3.5 h
